Results from paper PMC4336329 (PLoS ONE, 2015).
Hit rate of the full screen: of about 310,000 compounds, about 2,200 (0.71%) showed an effect of 50% or more. Effects have a minus sign here. The list shows a part of the results.

The compounds below were run against human ether-à-go-go-related gene (hERG) potassium channel (human, UniProt Q12809) (assay: primary screen, population patch clamp on CHO cells stably expressing hERG).
human ether-à-go-go-related gene (hERG) potassium channel, sequence (Q12809 whole entry, looked up): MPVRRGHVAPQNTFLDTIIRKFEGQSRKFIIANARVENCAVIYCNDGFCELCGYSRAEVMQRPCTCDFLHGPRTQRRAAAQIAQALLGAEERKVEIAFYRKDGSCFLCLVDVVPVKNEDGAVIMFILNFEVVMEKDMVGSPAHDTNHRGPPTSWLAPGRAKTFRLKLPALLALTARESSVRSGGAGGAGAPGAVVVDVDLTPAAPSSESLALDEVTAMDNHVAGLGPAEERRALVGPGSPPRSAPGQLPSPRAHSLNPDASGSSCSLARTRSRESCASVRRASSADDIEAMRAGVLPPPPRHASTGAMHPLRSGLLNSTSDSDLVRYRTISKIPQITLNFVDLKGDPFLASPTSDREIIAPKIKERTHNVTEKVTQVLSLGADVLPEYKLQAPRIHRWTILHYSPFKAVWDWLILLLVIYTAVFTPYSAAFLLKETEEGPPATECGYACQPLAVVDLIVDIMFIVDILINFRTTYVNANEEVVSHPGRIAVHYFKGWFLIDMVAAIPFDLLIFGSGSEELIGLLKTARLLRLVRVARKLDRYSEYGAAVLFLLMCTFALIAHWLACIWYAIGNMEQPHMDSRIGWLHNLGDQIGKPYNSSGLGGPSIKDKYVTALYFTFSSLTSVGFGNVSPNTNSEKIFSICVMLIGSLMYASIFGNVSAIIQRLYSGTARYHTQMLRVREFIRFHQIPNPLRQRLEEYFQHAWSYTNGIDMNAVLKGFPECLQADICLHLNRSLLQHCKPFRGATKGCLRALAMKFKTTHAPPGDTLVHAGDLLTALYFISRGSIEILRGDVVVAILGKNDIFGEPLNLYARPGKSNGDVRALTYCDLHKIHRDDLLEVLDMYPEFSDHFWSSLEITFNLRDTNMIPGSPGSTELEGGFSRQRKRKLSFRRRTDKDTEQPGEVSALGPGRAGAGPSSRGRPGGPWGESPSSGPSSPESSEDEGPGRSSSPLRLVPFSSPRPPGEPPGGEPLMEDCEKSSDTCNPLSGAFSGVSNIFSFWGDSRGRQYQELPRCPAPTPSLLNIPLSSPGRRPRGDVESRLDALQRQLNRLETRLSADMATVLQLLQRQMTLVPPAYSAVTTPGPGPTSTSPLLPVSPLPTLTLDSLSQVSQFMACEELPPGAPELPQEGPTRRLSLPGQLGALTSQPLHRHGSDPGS

Structure (SMILES) | hERG current change (%, negative = inhibition) at 1uM [%]
O=[N+]([O-])c1ccc(/C=N/Nc2nc(N3CCCCC3)nc(N3CCCCC3)n2)cc1 | 10.4
COc1ccc(NC(=O)CNS(=O)(=O)c2ccc(Cl)cc2)cc1 | 14.2
COc1ccc(CCNC(=O)CCc2nc3ccccc3[nH]2)cc1OC | 3.1
CCSc1nc(O)c(CC)c(=O)n1C(C)CC (stereo not drawn) | -9.36
CSCCC(NS(=O)(=O)c1cccc(C(F)(F)F)c1)C(=O)Nc1ccccc1N1CCCC1 (stereo not drawn) | 5.71
CN(C(=O)CSc1nnc(-c2ccccc2)o1)c1c(N)n(Cc2ccccc2)c(=O)[nH]c1=O | 13
Cc1cc(C(=O)C(=O)N(C)C)c(C)n1-c1ccc([N+](=O)[O-])cc1 | -8.01
COCc1ccc(C(=O)N2CCCC(N3CCN(c4ccccc4C)CC3)C2)s1 (stereo not drawn) | 0.695
COc1cc(/C(C)=N/NC(=O)CSc2nncn2C)ccc1OCc1ccccc1Cl | -0.742
Cc1ccc(NC(=O)CN(C)C(=O)Cn2nnc(-c3ccccc3)n2)cc1 | 0.272
COc1ccc(N/C=C(\[N+](=O)[O-])S(=O)(=O)c2ccccc2)cc1 | 14.7
Cl.O=C(NC1CCN(Cc2ccccc2)CC1)c1cc(-c2ccccn2)nc2ccccc12 | -30.9
Cc1oc(-c2ccc(Cl)cc2)nc1CN1CCCC(C(=O)NCCCN2CCCC2=O)C1 (stereo not drawn) | -8.71
COc1ccc(-c2nnc(SCC(=O)NCCc3ccccc3)o2)cc1 | 7.65
CCCNC(=S)Nc1ccc(Oc2ccccc2)cc1 | 3.29
Cc1cnnc2c1-c1no[n+]([O-])c1CC2 | 3.62
COc1ccc(COc2ccc3ccc(=O)oc3c2)cc1 | 11.2
CCOc1ccc(C)cc1S(=O)(=O)n1cnc2ccccc21 | 7.91
O=C(/C=C/N1CCN(Cc2ccccc2)CC1)C(F)(F)F | 11.1
Cc1cc(C)n(-c2ccc(NC(=O)C3CCCCN3C(=O)c3ccoc3C)cc2)n1 (stereo not drawn) | 12.4
O=C(Cc1cn2ccsc2n1)NCc1ccccc1 | 1.61
CCNC(=O)COC(=O)c1cc(S(=O)(=O)N2CCCc3ccccc32)ccc1Cl | 11.2
CC(=O)/C(C=Nc1noc(C)c1Br)=C(\C)O | 12.5

Structure (SMILES) | hERG current change (%, negative = inhibition) at 1uM [%]
Cc1ccc(C(C)NC(=O)c2c(C)noc2C)cc1C (stereo not drawn) | 7.57
Cn1cccc1Cc1nnc(SCC(=O)Nc2ccc(Cl)cc2)n1-c1ccc(F)cc1 | -10.5
COc1cc(Br)cc2cc(C(=O)NCC3CCCO3)c(=O)oc12 (stereo not drawn) | 0.878
CCN(CC)c1ccc(/C=N/Nc2nc(C)cc(C)n2)c(O)c1 | 4.66
COc1cccc(C(=O)Nc2cccnc2)c1 | 11.2
O=C(COc1ccc2ccccc2c1)N1CCN(Cc2ccncc2)CC1.O=C(O)C(=O)O | -14.8
CC(C)N1CCN(Cc2cccc(-c3ccco3)c2)CC1CCO (stereo not drawn) | -8.05
OC1CCCCC1 | 14.6
CSc1ncc(Cl)c(C(=O)Nc2ccccc2[N+](=O)[O-])n1 | 16.5
Cc1cc(C(=O)OCC(=O)Nc2ccc(F)cc2)c(C)n1C1CC1 | 11.5
Cc1ccc2c(CC(=O)N3CCN(c4ccccc4)CC3)coc2c1 | 9.82
COc1ccccc1OCC(=O)NCCSCc1cccc(Cl)c1 | 10.4
Cc1ccc(S(=O)(=O)c2nc(-c3ccccc3F)oc2N2CC(C)OC(C)C2)cc1 (stereo not drawn) | 9.16
COc1ccccc1CNC(=O)C1CCCN(S(=O)(=O)c2cccc3cccnc23)C1 (stereo not drawn) | 0.692
O=C(CSc1nc2c([nH]c3ccccc32)c(=O)n1-c1ccccc1F)NCC1CCCO1 (stereo not drawn) | 5.63
Cc1nn(-c2ccccc2)c(C)c1/C=N/NC(=O)c1cc(-c2cccc3ccccc23)n[nH]1 | 8.11
Cc1nn(C2CCS(=O)(=O)C2)c(Cl)c1/C=C/C(=O)OCC(N)=O (stereo not drawn) | 7
Cc1ccc(C(=O)N/C(=C\c2ccc(Br)cc2)c2nc(=S)[nH][nH]2)cc1 | 2.96
O=C1/C(=C/c2cccs2)SC(=S)N1CCCC(=O)N(CCO)c1ccccc1 | 16
O=C(/C=C/c1ccccc1)NCCSCc1ccc(Cl)cc1 | 6.58
CC1=C(C(=O)N2CCCCC2)C2(CCC(C)CC2)OC1=O (stereo not drawn) | 0.853
COc1ccc(CNC(=O)c2ccc(CS(=O)(=O)Cc3ccccc3F)o2)cc1 | 1.92
CCOc1cc(-c2noc(CCC(=O)NC3CCCCC3)n2)ccc1OC | 0.932

Structure (SMILES) | hERG current change (%, negative = inhibition) at 1uM [%]
CC(=O)C1=C(C)N(CC2CC2)C(=O)N[C@H]1c1ccc(Br)cc1 | 7.78
Cc1cnc(NC(=O)CCc2ccccc2)s1 | 10.7
CCCCCCCC1(C)NC(=O)NC1=O (stereo not drawn) | 11.1
O=C(NCc1cccc(F)c1)C1CCC(=O)N(C2CC2)C1 (stereo not drawn) | 13.7
O=[N+]([O-])c1ccccc1N/N=C\c1ccccc1F | 14.6
COCCn1c(Cc2ccccc2)nnc1SCC(=O)N1CCCCC1C (stereo not drawn) | 10.4
FC(F)(F)c1ccccc1CNCc1ccc2c(c1)OCO2 | 14.8
COc1ccc(C(=O)NCC(=O)NCC(=O)OCc2ccc(Cl)cc2)cc1 | 15.8
O=C(Nc1cccc(Cl)c1Cl)C1CCCC1 | -3.77
Cc1csc2nc(O)c(C(=O)NCCN3CCOCC3)c(=O)n12 | 1.84
CCOc1ccc(-c2noc(-c3ccncc3)n2)cc1OCC | 15.4
c1ccc(C(c2nnnn2Cc2ccco2)N2CCN(c3nc4ccccc4s3)CC2)cc1 (stereo not drawn) | 8.1
CCOP(=O)(OCC)C(Nc1ccccc1)c1ccccc1C(F)(F)F (stereo not drawn) | 19.9
COc1cc2[nH]c(=O)c(C(=O)NCCCN3CCOCC3)c(O)c2cc1OC.Cl | 12.6
Cc1ccc(N(CC(=O)Nc2ccc(F)c(Cl)c2)S(=O)(=O)c2c(C)noc2C)cc1 | 9.57
CC(NS(=O)(=O)c1ccccc1)C(=O)Nc1nccs1 (stereo not drawn) | 13.6
Cc1cccn2c(=O)c3cc(C(=O)NC4CCCCC4C)n(C)c3nc12 (stereo not drawn) | 9.38
Cc1cccc(N2CCN(C(=O)c3ccc(NS(=O)(=O)c4ccc5[nH]c(=O)[nH]c5c4)cc3)CC2)c1C | 15.5
COC(=O)COc1cccc(/C=N/NC(=O)CCSc2ccccc2)c1 | 14.1
CCOC(=O)COc1ccc(/C=C2\C(=O)NC(=S)N(c3ccc(OC)cc3)C2=O)cc1OC | 15.3
CCOc1ccc(NC(=O)CN(C)C(=O)/C=C/c2ccc(S(=O)(=O)N3CCCCCC3)cc2)cc1OCC | 19.3
COc1ccccc1CNC(=O)CN1C(=O)NC(C)(c2ccc(C)cc2)C1=O (stereo not drawn) | 7.07
O=C1CCCN1CCC(=O)N1CCCC(N2CCN(c3ccccc3F)CC2)C1 (stereo not drawn) | 10.7

Structure (SMILES) | hERG current change (%, negative = inhibition) at 1uM [%]
Cc1cccc(C(=O)N/N=C/c2ccc(OCC(=O)N3CCCCC3)cc2)c1 | 17.7
CCN=C1SC(CC(N)=O)C(=O)N1CC (stereo not drawn) | 15
Cc1ccc2nc(-c3ccc(NC(=O)COC(=O)c4ccc(Br)o4)cc3)sc2c1 | -0.107
COc1cc(C2NC(=O)NC3=C2C(=O)OC3)cc(OC)c1OC (stereo not drawn) | 8.02
CCOc1ccc(-n2nc3c(=S)[nH]nc(C)c3c2C)cc1 | 2.44
CC1Oc2ccccc2C=C1/C=N/NC(=O)c1ccccc1 (stereo not drawn) | 7.86
O=C(O)c1ccc2c(=O)n(-c3ccc(F)cc3)c(=S)[nH]c2c1 | 6.82
CNC(=S)N(Cc1ccco1)Cc1cc2cc3c(cc2[nH]c1=O)OCCO3 | 0.423
COc1ccc(C2=NS(=O)(=O)N(C)C(C(=O)NCc3ccccn3)=C2)cc1OC | 5.02
CC(=O)Nc1ccc(NS(=O)(=O)c2cc(Cl)sc2Cl)cc1 | 5.86
COc1ccc(C2CC(=O)N(CC(=O)NCC3CCCO3)c3ccccc3S2)cc1 (stereo not drawn) | -6.66
COc1cccc(Cl)c1NC(=O)N1CCc2c([nH]c3ccccc23)C1C(F)(F)F (stereo not drawn) | 13
Cc1c(C(=O)OCC(=O)Nc2cccc(S(N)(=O)=O)c2)oc2c1ccc1ccccc12 | 8.82
CCOC(=O)C1CN(S(C)(=O)=O)c2cc(CC(=O)OC)ccc2O1 (stereo not drawn) | 4.64
NC(=O)c1ccsc1NC(=O)CSc1ccccc1F | -0.041
CCN(CCO)Cc1csc2ccccc12.Cl | 3.69
CC1CCN(C(=O)c2ccc(S(=O)(=O)N(C)C)cc2)C(C)C1 (stereo not drawn) | 7.65
O=C(NCCSc1c[nH]c2ccccc12)C1CC1 | 2.45
COc1ccc(CN(C)CC(=O)NC2CCCc3ccccc32)cc1OC (stereo not drawn) | -5.59
O=C(Nc1nc(-c2ccc(Cl)cc2Cl)cs1)C1CCCO1 (stereo not drawn) | 15
CCOC(=O)CN1CC23C=CC(O2)C(C(=O)Nc2ccc(F)cc2)C3C1=O (stereo not drawn) | 8.66
